# Some of the results follow.
# System: T1, Caupolican (Caup) homeodomain DNA-binding domain
# T1 sequence: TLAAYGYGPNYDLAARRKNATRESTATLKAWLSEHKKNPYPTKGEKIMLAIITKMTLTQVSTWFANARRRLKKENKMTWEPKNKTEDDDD
# Experiment: PBM E-score (8-mer, recovered from the published 9-mer minima) (E-score (dimensionless, -0.5 to 0.5)); Drosophila protein; higher = stronger relative binding preference, active = 0.31 or more
# Outline: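 Caup's homeodomain DNA-binding domain (residues 214-303) was produced by in vitro transcription and translation and applied at 100 nM to custom-designed protein binding microarrays. Each value is an enrichment score giving relative binding preference for a short DNA word; higher means stronger. Published 9-mer scores were the minimum of their two constituent 8-mer scores, and the 8-mer values were recovered from those minima. A cutoff of 0.31 marks candidate binding sequences.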
row,Sequence,PBM E-score
1,AATGCCGT,inactive: -0.0301
2,CATTGCAA,inactive: 0.0755
3,TAAAGCAA,inactive: 0.0811
4,CTCGCCCA,inactive: -0.135
5,GGTACAAA,inactive: 0.256
6,CTCGATGA,inactive: 0.0198
7,CGCATCGA,inactive: -0.0433
8,AACACCTC,inactive: 0.122
9,TATCACCA,inactive: 0.111
10,AGCCAGCT,inactive: -0.123
11,ATTGTCCG,inactive: 0.122
12,CCATAGCG,inactive: -0.107
13,AATTGCCA,inactive: 0.00324
14,AAGGGCTG,inactive: -0.198
15,CCGATATC,inactive: 0.0407
16,AATACAAA,inactive: 0.284
17,ACGCGGTG,inactive: -0.101
18,GAAGATGC,inactive: -0.152
19,AGATTGGA,inactive: 0.0439
20,CCTATACC,inactive: -0.0691
21,GGCGATCA,inactive: -0.042
22,CAGACAGG,inactive: 0.0281
23,GAACCTAA,inactive: -0.0651
24,GGAGGGAA,inactive: -0.186
25,CGCCAAAC,inactive: -0.0574

row,Sequence,PBM E-score
1,AACAAGGC,inactive: 0.292
2,CACGATTC,inactive: 0.153
3,GCTCGACA,inactive: 0.0642
4,CAGGCCTC,inactive: -0.158
5,GACTTCCC,inactive: -0.156
6,CGAAACAC,inactive: 0.101
7,TACTGCAA,inactive: 0.125
8,ACCTGGAG,inactive: 0.037
9,AACTTGCT,inactive: 0.0485
10,TATTCCGA,inactive: 0.0967
11,ATTACGTC,inactive: 0.109
12,CGCATAAC,inactive: -0.0228
13,TGCAGGCA,inactive: -0.0274
14,ACCCTTGG,inactive: -0.124
15,TCCAGCCA,inactive: -0.0664
16,CCAATCGC,inactive: -0.0369
17,AGCAAGGC,inactive: -0.12
18,TACAGTGA,≥ 0.218
19,ACAAGTCA,inactive: 0.226
20,AACATGGG,active: 0.351
21,GGCATAAC,inactive: 0.0348
22,CTGTCGGA,inactive: 0.15
23,ACACGTGG,inactive: 0.214
24,AGATGCTA,inactive: 0.0221
25,ATGACAGG,inactive: 0.117

row,Sequence,PBM E-score
1,AAATGCAT,inactive: 0.0673
2,GTGCCGGA,inactive: -0.178
3,CCGTCTCG,inactive: -0.0932
4,CTAGAGGC,inactive: -0.132
5,AGTGCAGC,inactive: -0.0939
6,ACGATCGA,inactive: 0.109
7,AATATGAT,inactive: 0.0857
8,AGTGACGC,inactive: -0.155
9,GTTCCTGA,inactive: 0.0212
10,CGCTTTTA,inactive: -0.0253
11,ATCACGGC,inactive: -0.0188
12,GAGTAAGA,inactive: 0.047
13,GGACGGGA,inactive: -0.132
14,AACCACTA,inactive: 0.13
15,GCTTAACC,inactive: -0.0366
16,AGAGCCCC,inactive: -0.28
17,ACACTTGA,inactive: 0.076
18,CCACATAC,inactive: 0.127
19,GAAAGTAC,inactive: 0.00295
20,TCATAGAA,inactive: 0.0848
21,GACGATAC,inactive: 0.0456
22,GCATCATA,inactive: 0.157
23,ACATAGGT,inactive: 0.261
24,GACCAACA,inactive: 0.172
25,ATAGAAGA,inactive: 0.0591

row,Sequence,PBM E-score
1,ATCACGCC,inactive: -0.0355
2,GTAGACGA,≥ 0.091
3,ACACACCA,≥ 0.258
4,AGAGCGAG,inactive: -0.167
5,CCTACGCC,inactive: -0.234
6,TAGTGGGA,inactive: -0.00106
7,ACCCGGGG,inactive: -0.287
8,GATTACGC,inactive: 0.0519
9,CTCGGTCA,inactive: -0.0203
10,AAGTGATC,inactive: 0.159
11,ATATTGGA,inactive: 0.106
12,TCAGGAAA,inactive: -0.0401
13,CCGAGCCA,inactive: -0.155
14,CGAAAGAG,inactive: -0.131
15,TAGTATGA,inactive: 0.189
16,CAAATGCA,inactive: 0.0587
17,AATTTGCT,inactive: 0.104
18,GCAAATGA,inactive: -0.0169
19,GCGAGAGC,inactive: -0.245
20,AATTTAAT,inactive: 0.178
21,AGCGAAAG,inactive: -0.121
22,CATTATCA,inactive: 0.177
23,ACCGCTAA,inactive: 0.0277
24,AGACAATA,inactive: 0.203
25,CCCAAAGA,inactive: -0.158

row,Sequence,PBM E-score
1,CAGGTGTC,inactive: 0.0721
2,ACATCCAT,inactive: 0.241
3,GATCTAGA,inactive: -0.0194
4,AACTAAGA,inactive: 0.11
5,AGCCTCTG,inactive: -0.217
6,AACTGCTA,inactive: 0.036
7,GAAAGCGA,inactive: -0.0802
8,GACAGTGA,inactive: 0.102
9,ACACAATA,active: 0.31
10,TAAGCCAA,inactive: -0.0619
11,TACACGCA,inactive: 0.29
12,ATCTTGTA,active: 0.375
13,TACGGACA,≥ 0.265
14,AGAATGTC,inactive: 0.204
15,CGGACGTC,inactive: -0.12
16,GACGTGAC,inactive: 0.0644
17,ATAAGTCC,inactive: 0.0515
18,ACCCAGAT,inactive: -0.0464
19,TCGAAGCA,inactive: -0.0205
20,GAGAACAC,inactive: 0.236
21,CGCCATAA,inactive: -0.0604
22,GAACCACA,inactive: 0.0096
23,GGGTCACA,inactive: -0.153
24,GGGCAGTA,inactive: -0.0583
25,CGGTACGC,inactive: -0.179

row,Sequence,PBM E-score
1,CGTCGCAC,inactive: -0.121
2,ACGGGATG,inactive: -0.00996
3,CCTGTTCC,inactive: 0.0821
4,AGATTTCA,inactive: 0.0353
5,GTATTTGA,inactive: 0.196
6,ATCTATTC,inactive: 0.12
7,TATTAAGA,inactive: 0.0425
8,GGAGCGAA,inactive: -0.114
9,ATGGCATC,inactive: 0.0355
10,AAGTGAGG,inactive: -0.0705
11,CTTCGAAA,inactive: 0.033
12,ATGACTCA,≥ 0.118
13,GTTCAAAC,inactive: 0.109
14,ATGAAGAG,inactive: -0.0365
15,ACCGCTCC,inactive: -0.189
16,ACAGTCAT,≥ 0.154
17,AACAGTCA,inactive: 0.0664
18,AGTGGCAC,inactive: -0.0836
19,CGGTAACC,inactive: -0.0829
20,CAGGCGGG,inactive: -0.207
21,CATACTGC,inactive: -0.0312
22,CCCTACCG,inactive: -0.185
23,TAAAAGAA,inactive: 0.0807
24,TGGTAGAA,inactive: 0.0234
25,ATCTACGC,inactive: 0.0681

row,Sequence,PBM E-score
1,CAAGAATA,inactive: 0.00684
2,CCTTGAGC,inactive: -0.132
3,GATCCGTA,inactive: -0.136
4,ATGGAAGG,inactive: -0.0735
5,CATGGCCG,inactive: -0.0998
6,CACAACGG,inactive: 0.00345
7,TGCACACA,inactive: 0.12
8,CTTCGATC,inactive: -0.107
9,ATGGTACC,inactive: 0.0486
10,AAGAACAA,inactive: 0.259
11,AAACAGGC,inactive: 0.0748
12,GGAGAGAA,inactive: -0.109
13,AGATTTAC,inactive: 0.146
14,ACTGTCAT,inactive: 0.18
15,AAGCCGTC,inactive: -0.173
16,GAACCTGC,inactive: 0.0186
17,CGTACAAA,inactive: 0.18
18,CCACGAAG,inactive: -0.116
19,ATCCGAGC,inactive: -0.047
20,CCGTGCCG,inactive: -0.172
21,CTTTACCA,inactive: 0.057
22,AGACTAAA,inactive: -0.00285
23,CACGCCAG,inactive: -0.169
24,GTGAGATA,inactive: 0.0321
25,CCTGCCCG,inactive: -0.176

row,Sequence,PBM E-score
1,AGAATGTG,inactive: 0.0382
2,GAGCAAGA,inactive: -0.00954
3,CAGCCTCG,inactive: -0.037
4,CCGAGAGG,inactive: -0.278
5,GTTCGGGA,inactive: 0.0323
6,GGTGTTTA,inactive: 0.124
7,AAATTTGT,inactive: 0.128
8,GAGAAGAC,inactive: -0.118
9,AGGAAGAT,inactive: -0.0551
10,CCGTCGCG,inactive: -0.17
11,CAGAAGAG,inactive: -0.0491
12,ACTATCTA,inactive: 0.192
13,ATTCCGTG,inactive: 0.133
14,AATAGGGA,inactive: -0.0269
15,CACAGCGG,inactive: -0.114
16,GAACAATA,inactive: 0.166
17,TCAGGCGA,inactive: -0.124
18,ATTAGTGC,inactive: 0.105
19,GCTGGCAA,inactive: -0.0692
20,AGATCCGC,inactive: -0.129
21,CAGCACAG,inactive: 0.0685
22,AGGAGTCG,inactive: -0.0297
23,GTGTTAGA,inactive: 0.224
24,GCGACTGA,inactive: -0.131
25,AAATCTAG,inactive: -0.0103

row,Sequence,PBM E-score
1,CAACGATA,inactive: 0.153
2,ATGCCAAC,inactive: 0.0457
3,CTGGGCCA,inactive: -0.265
4,ATTATAAC,inactive: 0.136
5,CGAACCTA,inactive: -0.0301
6,ACCCGCAA,inactive: -0.0708
7,ACTTGTTA,active: 0.368
8,CCATGCCC,inactive: -0.207
9,CTGCGCAG,inactive: -0.162
10,ATCTTCTC,inactive: -0.106
11,CCTGGATC,inactive: -0.107
12,CTCACGCA,inactive: -0.056
13,GGTATAGA,inactive: 0.0474
14,CGGTGTAA,inactive: 0.185
15,AAAGTATT,inactive: 0.131
16,CACGCGCC,inactive: -0.0843
17,ATTCGATC,inactive: 0.0755
18,ACTGAAGT,inactive: -0.0277
19,GACAGGCA,inactive: -0.00243
20,GTGGGTAA,inactive: -0.0232
21,ATCATAAG,inactive: 0.149
22,TAGGCCAA,inactive: -0.0624
23,AGCCCCGA,inactive: -0.209
24,GAGCAGGC,inactive: -0.117

# Reference: the supplement of paper PMC3724861
